Values joined by “and” are separate entries in the source; they are usually repeats but may differ in a detail not shown here. Identical values can stand only once.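 All cell lines were grown in 96-well plates and treated with compound for 48 hours. The concentration for 50% growth inhibition is given as GI50. The concentration for full growth arrest is given as TGI.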 Numbered stars: 1 amine (or outer) side, 2 acyl side, 3 side chain; on linkers, the order of the positions; unused ones are H or OH. Bridge positions count the residues as written; N and C are the ends. Square brackets hold non-standard residues; d marks the D form. Peptide text beside a SMILES is read from it. I, II: the chains in the order shown. Actinocin(9to1) = Cc1c2oc3c(C)ccc(C(=O)[*:1])c3nc-2c(C(=O)[*:2])c(N)c1=O; NMeF = CN[CH](Cc1ccccc1)C(=O)O; Sar = CNCC(=O)O

In this test the test system is NCI-H322M lung. As to the kind of experiment: NCI-60 cell line screen, 48 h.
On to `COC(=O)C(C)NC(=O)c1ccccc1I(OS(=O)(=O)C(F)(F)F)c1ccccc1` (stereo not given), for which the GI50 is 21.4 µM and the TGI came out at 49.7 µM.

With `CCCCNC(=O)/N=C/c1c(O)c2ccccc2oc1=O`, the TGI is > 100 µM.

For `N=C(N)c1ccc(-c2ccc(-c3ccc(Cl)cc3Cl)s2)cc1`, the GI50 was 1.7 µM and the TGI was 3.1 µM.

With `C=CC1=C(C)C2=NC1=CC1=NC(=C(CC)/C1=C\O)C=C1N=C3C(=C1C)C(=O)[C@H](C(=O)OC)C3=C1NC(=C2)[C@@H](C)[C@@H]1CCC(=O)O`, the TGI was > 100 µM.

With `CN1C/C(=C\C=C\c2ccccc2)C(=O)/C(=C/C=C/c2ccccc2)C1`, the TGI was > 100 µM.

Take `Oc1ccc(Cl)cc1C1=NC(/N=C\c2ccccc2)=NC(c2ccccc2)C1` (stereo not given): the TGI was > 100 µM.

Take `CC(=O)[CH-]C(=O)c1ccccc1.CC(=O)[CH-]C(=O)c1ccccc1.CC[O-].O=C1c2ccccc2C(=O)c2c1ccc(O)c2[O-].[Ti+4]`: the TGI is > 100 µM.

As for `CCOC(=O)N1CCC(=C2c3ccc(Cl)cc3CCc3cccnc32)CC1`, the TGI was 24.1 µM.

On to `O=c1ccc2ccc(O)cc2o1`, for which the TGI was > 100 µM.

Take `O=[N+]([O-])c1ccc(C=NC23CC4CC(CC(C4)C2)C3)cc1`: the TGI is > 100 µM.

Regarding `O=C(O)c1cc2ccccc2c2c1C(=O)c1ccccc1-2`, the TGI is > 100 µM.

`O=C(O)CCC(NC(=O)c1ccc(Nc2nc3cc(C(F)(F)F)ccc3nc2C(=O)O)cc1)C(=O)O` (stereo not given): the TGI was > 100 µM.

As for `O=C(/C=C\c1cccc2ccccc12)c1cccc2ccccc12`, the TGI is 13.2 µM.

In the case of `C=CC(COC(c1ccccc1)(c1ccccc1)c1ccccc1)N(CC)CC` (stereo not given), the GI50 was 10.9 µM and the TGI worked out at 23.8 µM.

Turning to `COC(=O)C(NC(=O)c1ccccc1)C(c1ccc(Cl)cc1)P(=O)(OC)OC` (stereo not given), the TGI was > 100 µM.

Take `CCC[C@@H]1C(=O)N=C(N)N1C(=O)OCc1ccccc1`: the TGI was > 100 µM.

`O=C1OCC2=C1C(c1ccccc1)c1cc3c(cc1N2CCO)OCCO3` (stereo not given): the GI50 is 2.52 µM and the TGI is > 50 µM.

Consider `O=c1[nH]c(=S)c2cc3c(=S)[nH]c(=O)n(CCO)c3nc2n1CCO`, for which the TGI is > 100 µM.

Turning to `OCCN1CCN(CC/C=C2/c3ccccc3Sc3ccc(Cl)cc32)CC1`, the TGI is 30.2 µM.

Regarding `CN(C)/N=N/c1nc[nH]c1C(N)=O`, the GI50 is 115 µM and the TGI is > 1000 µM.

Regarding `COc1ccc(Nc2nc(N)c(C(=O)c3cccs3)s2)cc1`, the TGI was > 68.7 µM.

Turning to `CC1=C(C)C(=O)C(C2=CC(=O)C=CC2=O)=C(C2=CC(=O)C=CC2=O)C1=O`, the TGI is > 100 µM.

Regarding `O=C1c2ccccc2C(=O)c2[nH]c(Cc3ccc(F)cc3)nc21`, the TGI is 34.5 µM.

For `Cc1ccc(N=C2C(=Nc3ccc(C)cc3)N(c3ccc(C)cc3)C(=S)N2C(=O)c2ccccc2)cc1`, the TGI is > 100 µM.

Turning to `CCCC(=O)[O-].N.N.N.N.N.[Co+3].[O-][Cl+3]([O-])([O-])[O-]`, the TGI is > 100 µM.

Regarding `C[C@@H](Nc1nc(Nc2ccc(F)c(Cl)c2)nc2ccccc12)C1CC1`, the GI50 is 5.24 µM and the TGI turned out to be 18.3 µM.

Regarding `CC#Cc1nc(Nc2cc(C)[nH]n2)c2ccccc2n1`, the GI50 was 11 µM and the TGI turned out to be 38.1 µM.

`O=C1NCCS(=O)(=O)N2CCC[C@@H]12`: the TGI is > 100 µM.

The compound `CCC(NC1=NCCO1)c1cccs1` (stereo not given) had a TGI of 32.4 µM.

In turn, `CCCCCCCCCCCCCC(=O)N(CCCCCCCCC)CC(O)C(O)C(OC1OC(CO)C(O)C(O)C1O)C(O)CO` (stereo not given) came in with a TGI of 32.3 µM.

On to `Cc1ccc(NC(=O)CSC(N)=O)cc1C`, for which the TGI is > 100 µM.

As to `Cc1ccc([C@]2(C)CC[C@H](C)/C2=C\Br)c(O)c1`, the GI50 is 7.32 µM and the TGI was found to be 20.3 µM.

As to `Cc1sc2nc3n(c(=O)c2c1C)N=CN(c1ccc(F)cc1)C3`, the TGI was > 100 µM.

In turn, `CCc1cccc(C)c1NC(=O)CC1C(=O)Nc2ccccc2S1(=O)=O` (stereo not given) had a TGI of 50.5 µM.

As to `Brc1cc2c(cc1Br)CN(c1ccccc1)C2`, the TGI was > 100 µM.

Turning to `COc1ccc2ccc3oc([N+](=O)[O-])cc3c2c1`, the GI50 was 0.868 µM and the TGI was 5.52 µM.

Compound `CC(C)(C)[Si](C)(C)OCC1OC(n2cnc3c(=O)[nH]c(N)nc32)C(O[Si](C)(C)C(C)(C)C)C1O[Si](C)(C)C(C)(C)C` (stereo not given) displayed a TGI of 8.74 µM.

In the case of `CCCCCCCCCCCCCCCCCC(=O)Nc1ccn(C2OC(CO)C(O)C2O)c(=O)n1` (stereo not given), the TGI was > 100 µM.

Regarding `O=S1Nc2c(Cl)cc(Cl)c(Cl)c2S1` (stereo not given), the TGI was > 100 µM.

For `C=C(c1ccccc1)c1ccccc1-c1cc(-c2ccccc2)cc(-c2ccccc2)n1`, the TGI was > 100 µM.

With `Cc1c([N+](=O)[O-])oc2ccc3ccccc3c12`, the TGI is > 100 µM.

Regarding `CCN1CCC(O)(/C=C/c2ccc(C(C)C)cc2)C(C(=O)/C=C/c2ccc(C(C)C)cc2)C1` (stereo not given), the TGI worked out at 13.9 µM.

In the case of `Cc1c2oc3c(C)ccc(C(=O)NC4C(=O)NC(C(C)C)C(=O)N5CCCC5C(=O)N(C)CC(=O)N(C)C(Cc5ccccc5)C(=O)OC4C)c3nc-2c(C(=O)NC2C(=O)NC(C(C)C)C(=O)N3CCCC3C(=O)N(C)CC(=O)N(C)C(Cc3ccccc3)C(=O)OC2C)c(N)c1=O` (stereo not given) (I: TVP[Sar][NMeF] / II: TVP[Sar][NMeF]; ester I:1-I:C, II:1-II:C; linker I:N-II:N via Actinocin(9to1); configuration not given here), the TGI was < 0.0432 µM and 0.422 µM.

With `CC(=O)c1c2n(n(-c3ccccc3)c1=O)C(=O)c1nccnc1-2`, the TGI was > 100 µM.

On to `[N-]=[N+]=Nc1c([N+](=O)[O-])c(=O)n2c3c(cccc13)CCC2`, for which the TGI was > 60.7 µM.

For `CN(C)CCCNCc1cccc2ccccc12`, the TGI was > 100 µM.

For the origin of these results see PubChem BioAssay (NCI).
